Experimental data: PubChem BioAssay AID1347417 (National Center for Advancing Translational Sciences (NCATS), 2020)
Out of some 120,000 compounds screened, about 5,300 (4.4%) were called active. The inconclusive results got no clear call from the source; some entries with a clear call stand among them for comparison. The call rests on the fitted dose curve; in most records, active means well fitted inhibition curve with a large enough effect; inconclusive means small, poorly fitted or top-dose-only effect; inactive means no such curve, though single readings can be large or run the other way. A potency beside an inconclusive call is a rough fit, not a confirmed value.

Assay: qHTS Primary assay for Inhibitors of Plasmodium falciparum Dd2 growth in vitro; further: nearly all actives have a fitted effect of over 65% in size
Settings: P. falciparum Dd2 growth, SYBR Green, 72 h; series mostly up to 28.9 µM
How it was run: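 Infected erythrocytes (Dd2, 0.3% parasitemia, 2.5% hematocrit final) are added to compound in RPMI-1640/Albumax II medium, grown 72 h at 37C in low oxygen, then lysed with saponin/Triton-X containing SYBR Green and read by fluorescence.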
Potency means the concentration at half of the fitted maximal effect; tags describe the fitted curve by direction and shape.

| Structure (SMILES) | Potency |
| --- | --- |
| COc1cc(C(=O)N2CCN(c3cc(-c4cccs4)[nH]n3)CC2)cc(OC)c1OC | inactive |
| COCC1CN(C)CC12CCN(C(=O)c1ccc(C)cc1C)CC2 (configuration not stated) | inactive |
| COc1ccc(C2Cn3nnc(C(=O)N4CCN(C(=O)c5ccccc5F)CC4)c3CO2)cc1 (configuration not stated) | inactive |
| O=C(O)c1ccc(CN2CCC[C@H]2c2nc(-c3ccc(OC4CCCCC4)nc3)no2)cc1 | inactive |
| Cc1cc(=O)n(CC(=O)Nc2ccc(F)cc2)c(-c2ccccc2)n1 | inactive |
| O=C(Cn1ccn2nc(-c3ccccc3)c(CO)c2c1=O)N1CCC(Cc2ccccc2)CC1 | inactive |
| CCC1(O)CCC12CCNCC2 (configuration not stated) | inactive |
| CCOC(=O)c1c(C)c(-c2ccccc2)n(CC(=O)NC2CCCCCC2)c1C | inconclusive: 0.199 µM [inhibitor, full curve, poor fit] |
| O=C(c1cccs1)N1CCC(Oc2ccccc2)C1 (configuration not stated) | inconclusive: 11.2 µM [inhibitor, single point] |
| CC(C)c1ccc(NC(=O)c2ccc(Cn3nc(N4CCN(c5ccccc5)CC4)ccc3=O)o2)cc1 | inconclusive: 17.8 µM [inhibitor, single point] |
| O=C(Cn1ncn2nc(-c3cccs3)cc2c1=O)NCc1ccccc1Cl | inactive |
| CCNc1ccnc(NC2CCCc3c2cnn3-c2ccc(C)c(C)c2)n1 (configuration not stated) | inconclusive: 8.91 µM [inhibitor, partial curve, poor fit] |
| CN(C)Cc1ccc(-c2cc(-c3ccncc3)c3cncn3c2)cc1 | inconclusive: 6.31 µM [inhibitor, partial curve, poor fit] |
| COc1ccc(NC(=O)CN2C(=O)C3(SCC(=O)N3c3ccccc3)c3ccccc32)cc1Cl (configuration not stated) | inconclusive: 20 µM [inhibitor, single point] |
| Cc1noc(-c2cn(C3CCN(C(=O)COc4ccc(F)cc4)C3)nn2)n1 (configuration not stated) | inconclusive: 3.98 µM [inhibitor, partial curve, poor fit] |
| CCCN(CCC)CCNC(=O)c1sc2nc3n(c(=O)c2c1C)CCCCC3 | inconclusive: 11.2 µM [inhibitor, single point] |
| COc1cccc(NC(=O)c2ccc3c(c2)NC(C)(CNc2ccccc2)CO3)c1 (configuration not stated) | inconclusive: 5.62 µM [inhibitor, single point] |
| Cc1cccc(-c2ccc3c(c2)C(=O)N2CC[C@H](NC(=O)c4cccs4)[C@H]2C(=O)N3)c1C | inconclusive: 12.6 µM [inhibitor, single point] |
| CCc1c(C)sc2c1CCN(C(=O)Nc1cc(C)ccc1OC)C2c1ccc(F)cc1 (configuration not stated) | inconclusive: 14.1 µM [inhibitor, single point] |
| CC(=O)N1CCCN(C(=O)CC(c2cccc(O)c2)c2cccc(Cl)c2)CC1 (configuration not stated) | inactive |
| COc1ccc(C)cc1NC(=O)CC1CCCN(c2cnn(C)c(=O)c2)C1 (configuration not stated) | inconclusive: 20 µM [inhibitor, single point] |
| Cc1ccccc1NC(=O)N1CCC(CCNC(=O)C2(c3ccccc3)CC2)CC1 | inactive |
| CC(C)CCNC(=O)c1cnc2n1CCN(Cc1ccccc1Cl)CC2 | inactive |

| Structure (SMILES) | Potency |
| --- | --- |
| Cc1cccc(Cn2cnc3c(oc4ccccc43)c2=O)c1 | inconclusive: 8.91 µM [inhibitor, single point] |
| Cc1ccc(CNC(=O)C2CCc3nc(N4CCN(C(=O)C(C)C)CC4)sc3C2)o1 (configuration not stated) | active: 7.94 µM |
| CN1CCC(NC(=O)c2ccc3c(c2)n(Cc2ccc(F)cc2)c(=O)c2ccnn23)CC1 | active: 2.51 µM |
| COc1ccc(-c2nc(C3CC(=O)N(c4ccc(F)cc4)C3)no2)c(OC)c1 (configuration not stated) | inconclusive: 17.8 µM [inhibitor, single point] |
| O=C(CCn1ccn2nc3c(c2c1=O)CCCC3)NCc1ccccc1Cl | inactive |
| C=CCc1ccc(OCc2ccc(C(=O)Nc3ccc(NC(C)=O)cc3)o2)c(OC)c1 | inconclusive: 6.31 µM [inhibitor, partial curve, poor fit] |
| CN1CCC(OC2CCN(C(=O)CC3CCCC3)CC2)CC1 | inactive |
| O=C(Cc1c[nH]c2ccccc12)NCC(=O)N1CCCCCCNC(=O)CC1c1ccccc1 (configuration not stated) | inconclusive: 7.94 µM [inhibitor, single point] |
| CN(Cc1ccc(N2CCNC2=O)cc1)CC1CCCN(CCc2ccc(F)cc2)C1 (configuration not stated) | active: 12.6 µM |
| O=S(=O)(c1cccnc1)N1CCC(c2nc(C3CC3)no2)C1 (configuration not stated) | inactive |
| O=C(Cn1cc(S(=O)(=O)Cc2ccc(F)cc2)c2ccccc21)NCc1ccccc1 | inactive |
| COc1ccccc1CCNC(=O)c1cccn1-c1nnc(N2CCCCC2)s1 | inconclusive: 0.0251 µM [inhibitor, full curve, poor fit] |
| Cn1c(C(=O)NCc2cccc(F)c2)cc2cc(S(=O)(=O)N3CCCCC3)ccc21 | inconclusive: 10 µM [inhibitor, single point] |
| CN(C)C[C@@H]1CN(Cc2ccccn2)C[C@H]1NS(=O)(=O)c1ccccc1F | inconclusive: 4.47 µM [inhibitor, partial curve, poor fit] |
| O=c1c2c(CO)c(-c3ccc(F)cc3)nn2ccn1Cc1ccccc1F | inconclusive: 11.2 µM [inhibitor, single point] |
| COc1ncccc1-c1cc(-c2ccncc2)c2cncn2c1 | inconclusive: 2.82 µM [inhibitor, single point] |
| COCC1CN(C(C)=O)CC12CCN(C(=O)c1ccc(OC)nc1OC)CC2 (configuration not stated) | inactive |
| COC(=O)[C@@H]1Cc2nc[nH]c2CN1Cc1ccc(OC)c2ccccc12 | inconclusive: 31.6 µM [inhibitor, single point] |
| COc1ccc(C)cc1NC(=O)Cn1c(C)cc2nc3n(c(=O)c21)CCCC3 | inactive |
| Cc1ccc(-c2cccc(CN3CCCC(c4nc5ccc(F)cc5c(=O)[nH]4)C3)c2)c(C)c1 (configuration not stated) | inconclusive: 20 µM [inhibitor, single point] |
| CC1(C)CC(C(=O)N2CCC3(CC2)C(=O)Nc2ccccc23)CCO1 (configuration not stated) | inactive |
| CNC(=O)c1cnn2c1CN(C(=O)c1cccnc1)CC2 | inactive |
| CCC(=O)N1CCCN(Cc2ccc3c(c2)OCO3)c2ccccc21 | inconclusive: 8.91 µM [inhibitor, single point] |

| Structure (SMILES) | Potency |
| --- | --- |
| Cc1ccc(C)c(N2CCN(C(=O)c3c4c(nc5ccccc35)C(=O)N(C3CCCCC3)C4)CC2)c1 | inconclusive: 12.6 µM [inhibitor, single point] |
| CCOc1ccc(C(=O)N2CCC3(CC2)CN(C2CCC2)CC3COC)cc1 (configuration not stated) | inconclusive: 5.01 µM [inhibitor, partial curve, poor fit] |
| CCOc1ccccc1CN1CCC2(CCN(C(=O)COC)CC2)Oc2ccccc21 | inconclusive: 4.47 µM [inhibitor, partial curve, poor fit] |
| COc1ccccc1CNC(=O)C1(c2ccc(NS(C)(=O)=O)cc2)CCCCC1 | inconclusive: 1.78 µM [inhibitor, partial curve] |
| Cc1cc(C)c(/C=C/c2onc(C)c2S(=O)(=O)N2CCC(C(=O)NCc3ccco3)CC2)c(C)c1 | active: 11.2 µM |
| CCN1CCC2(CC1)Cc1ccccc1CN(C(=O)C1CCCC1)C2 | inconclusive: 17.8 µM [inhibitor, partial curve, poor fit] |
| COc1cccc(C2Cn3nnc(-c4nc(-c5ccccc5Br)no4)c3CO2)c1 (configuration not stated) | inconclusive: 0.398 µM [inhibitor, full curve] |
| Cc1ccc(CSc2nc3ccc(NC(=O)COc4ccccc4F)cc3s2)cc1 | inconclusive: 17.8 µM [inhibitor, single point] |
| CCN(CC)CCCNC(=O)Cn1c(-c2cccs2)cc2cc(Cl)ccc21 | active: 11.2 µM |
| O=C(CCCCn1c(=O)[nH]c2ccsc2c1=O)N1CCN(c2cccc(Cl)c2)CC1 | inconclusive: 15.8 µM [inhibitor, single point] |
| CCCCN(CCCC)S(=O)(=O)c1ccc2oc(C(=O)NCc3ccccc3)c(C)c2c1 | inconclusive: 5.62 µM [inhibitor, partial curve] |
| NS(=O)(=O)c1ccc(CCNc2nc3c(-c4cccc(F)c4)nnn3c3ccc(Cl)cc23)cc1 | active: 11.2 µM |
| CCN1CCN(C(=O)c2ccc3c(c2)N(Cc2cc(C)ccc2C)C(=O)c2ccccc2S3=O)CC1 (configuration not stated) | inconclusive: 0.562 µM [inhibitor, partial curve, poor fit] |
| Cc1ccc(-c2ccc3nnc(CNC(=O)CCC4CCCC4)n3n2)cc1 | inconclusive: 10 µM [inhibitor, single point] |
| COc1cc(CN2CCOCC2)ccc1OCC(O)CN1CCSCC1 (configuration not stated) | inactive |
| CC(C)C(=O)N1Cc2ccccc2CC2(CCCN(Cc3cccnc3)C2)C1 (configuration not stated) | inconclusive: 7.94 µM [inhibitor, partial curve, poor fit] |
| O=C1COCC2(CN(Cc3ccc4c(c3)CCO4)C2)CN1Cc1ccccc1 | inconclusive: 2.82 µM [inhibitor, partial curve, poor fit] |
| CCCC(=O)N1CCC(N2C(=O)C3(CCCCC3)C2c2ccncc2)CC1 (configuration not stated) | inconclusive: 7.94 µM [inhibitor, partial curve, poor fit] |
| COc1ccc(CCC(=O)N2CCCCCCNC(=O)[C@@H]3C[C@@H](c4nc(C(C)C)no4)C[C@@H]32)cc1 | inconclusive: 3.98 µM [inhibitor, partial curve, poor fit] |
| Cc1oc(-c2ccc(Cl)cc2)nc1Cn1c(=O)cc(-c2ccccc2)c2c(C)nn(C)c21 | inconclusive: 1.26 µM [inhibitor, full curve] |
| CC(C)N1C[C@H](O)C[C@H]1c1nnc2n1CCN(C(=O)c1ccsc1)CC2 | inactive |
